Measurements published in PubChem BioAssay AID504333 (National Center for Advancing Translational Sciences (NCATS), 2011).
Several values for one entry are separate records, joined by “and”; a condition that tells them apart may be missing. Equal entries are not always repeated. About 16,000 (4.4%) of roughly 360,000 compounds were called active. Inconclusive results, whose numbers are uncertain, are shown with a selection of clear calls. The call rests on the fitted dose curve; in most records, active means well fitted inhibition curve with a large enough effect; inconclusive means small, poorly fitted or top-dose-only effect; inactive means no such curve, though single readings can be large or run the other way. A potency beside an inconclusive call is a rough fit, not a confirmed value.

molecular target: Bromodomain adjacent to zinc finger domain protein 2B (Homo sapiens) (UniProt Q9UIF8); experiment: qHTS Assay for Inhibitors of BAZ2B; settings: AlphaScreen BAZ2B-H3K14Ac peptide displacement; series mostly up to 114 µM; further: nearly all actives have a fitted effect of over 60% in size
Outline: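 Protein-peptide AlphaScreen: BAZ2B 50 nM, b-H3K14Ac 50 nM, 1x PBS pH 7.4 + 0.01% Tween-20. Preincubation 30 min RT; cpd 30 min RT (top 110 uM); beads 20 min RT, light-protected.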
Potency means the concentration at half of the fitted maximal effect; tags describe the fitted curve by direction and shape.

Sequence of UniProt Q9UIF8 (Q9UIF8 whole entry, looked up, the tested form may be a part): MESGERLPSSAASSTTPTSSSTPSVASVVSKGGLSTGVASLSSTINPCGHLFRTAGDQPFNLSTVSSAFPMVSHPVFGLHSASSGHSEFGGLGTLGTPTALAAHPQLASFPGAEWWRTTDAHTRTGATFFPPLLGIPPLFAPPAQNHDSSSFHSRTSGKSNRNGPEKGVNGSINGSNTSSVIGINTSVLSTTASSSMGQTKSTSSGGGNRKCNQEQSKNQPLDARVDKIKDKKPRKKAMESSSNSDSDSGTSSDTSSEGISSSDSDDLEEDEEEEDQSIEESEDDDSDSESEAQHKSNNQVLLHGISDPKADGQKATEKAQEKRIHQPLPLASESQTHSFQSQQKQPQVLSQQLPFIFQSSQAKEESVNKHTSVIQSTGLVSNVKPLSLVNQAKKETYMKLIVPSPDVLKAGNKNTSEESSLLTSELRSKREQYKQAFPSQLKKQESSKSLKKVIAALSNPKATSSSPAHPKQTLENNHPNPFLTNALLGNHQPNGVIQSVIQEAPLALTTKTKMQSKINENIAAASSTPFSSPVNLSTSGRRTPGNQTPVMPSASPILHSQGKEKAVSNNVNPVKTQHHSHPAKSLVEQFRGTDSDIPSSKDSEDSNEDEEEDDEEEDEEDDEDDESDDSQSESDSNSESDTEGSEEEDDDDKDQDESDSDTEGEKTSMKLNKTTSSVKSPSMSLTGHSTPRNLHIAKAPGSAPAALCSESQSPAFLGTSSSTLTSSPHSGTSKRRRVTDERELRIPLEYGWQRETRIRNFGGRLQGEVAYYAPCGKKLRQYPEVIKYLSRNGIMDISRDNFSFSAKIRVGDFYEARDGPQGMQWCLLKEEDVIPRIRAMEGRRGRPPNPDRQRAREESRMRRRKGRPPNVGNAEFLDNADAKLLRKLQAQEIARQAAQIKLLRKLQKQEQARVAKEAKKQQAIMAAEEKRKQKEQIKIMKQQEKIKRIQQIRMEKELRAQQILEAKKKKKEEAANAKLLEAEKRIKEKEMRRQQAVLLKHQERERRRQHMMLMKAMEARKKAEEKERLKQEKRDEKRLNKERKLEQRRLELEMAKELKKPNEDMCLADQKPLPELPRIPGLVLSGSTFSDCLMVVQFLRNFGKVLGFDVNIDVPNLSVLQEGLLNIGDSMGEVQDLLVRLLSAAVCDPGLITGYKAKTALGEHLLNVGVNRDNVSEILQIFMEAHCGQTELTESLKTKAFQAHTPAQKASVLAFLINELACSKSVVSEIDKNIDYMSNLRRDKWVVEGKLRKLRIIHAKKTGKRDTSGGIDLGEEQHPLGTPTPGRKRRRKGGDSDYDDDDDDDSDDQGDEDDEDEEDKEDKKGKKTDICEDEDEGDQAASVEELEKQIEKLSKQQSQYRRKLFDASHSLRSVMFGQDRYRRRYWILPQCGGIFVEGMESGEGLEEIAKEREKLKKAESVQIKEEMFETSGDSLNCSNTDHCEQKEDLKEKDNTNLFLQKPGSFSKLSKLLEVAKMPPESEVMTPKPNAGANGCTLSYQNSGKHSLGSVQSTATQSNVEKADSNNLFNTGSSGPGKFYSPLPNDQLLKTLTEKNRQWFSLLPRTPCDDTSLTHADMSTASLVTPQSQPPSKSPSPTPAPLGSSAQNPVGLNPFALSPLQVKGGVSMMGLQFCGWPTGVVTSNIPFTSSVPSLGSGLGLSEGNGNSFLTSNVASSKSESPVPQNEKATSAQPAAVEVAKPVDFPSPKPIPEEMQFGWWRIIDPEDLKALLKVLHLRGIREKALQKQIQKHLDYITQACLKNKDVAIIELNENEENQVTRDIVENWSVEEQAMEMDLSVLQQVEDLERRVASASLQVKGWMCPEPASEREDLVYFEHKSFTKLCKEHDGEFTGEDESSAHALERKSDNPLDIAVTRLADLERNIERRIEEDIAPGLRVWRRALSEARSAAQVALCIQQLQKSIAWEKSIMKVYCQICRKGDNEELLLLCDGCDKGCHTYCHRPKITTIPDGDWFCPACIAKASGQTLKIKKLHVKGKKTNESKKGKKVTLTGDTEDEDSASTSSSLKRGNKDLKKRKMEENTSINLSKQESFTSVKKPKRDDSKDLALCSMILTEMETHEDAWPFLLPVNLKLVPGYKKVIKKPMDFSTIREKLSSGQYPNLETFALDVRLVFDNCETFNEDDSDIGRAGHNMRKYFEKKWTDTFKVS

| Structure (SMILES) | Potency |
| --- | --- |
| CN1C[C@H](C(=O)N[C@]2(C)O[C@@]3(O)[C@@H]4CCCN4C(=O)[C@H](Cc4ccccc4)N3C2=O)CC2c3cccc4[nH]cc(c34)C[C@H]21 (stereo partly drawn) | inconclusive: 89.1 µM [inhibitor, single point] |
| COc1ccc(CNC(=O)/C=C/c2ccc3[nH]cc(CCN(C)C)c3c2)cc1 | inconclusive: 79.4 µM [inhibitor, single point] |
| C=CCNc1nnc(Sc2ncccc2[N+](=O)[O-])s1 | inconclusive: 79.4 µM [inhibitor, single point] |
| Cc1ccc(Cl)cc1Nc1nn2c(=O)c3ccc(C(=O)NCc4cccs4)cc3nc2s1 | inconclusive: 79.4 µM [inhibitor, single point] |
| CCn1nc(/C=C/c2ccccc2)nc2c(=O)n(C)c(=O)nc1-2 | inactive |
| COC(=O)c1nc(-c2ccc3c(n2)C(=O)C(N)=C(OC)C3=O)c(N)c(-c2ccc(OC)c(OC)c2O)c1C | inconclusive: 35.5 µM [inhibitor, partial curve] |
| COc1cc(CN2CCc3nc(N4CCN(c5ncccn5)CC4)ncc3C2)cc(OC)c1OC | active: 44.7 µM |
| O=C(c1ccc2nc(-c3ccco3)c(-c3ccco3)nc2c1)N1CCC2(CC1)OCCO2 | active: 56.2 µM |
| O=C1NC(=O)N(Cc2ccc(F)cc2)C(=O)/C1=C\c1ccoc1 | active: 50.1 µM |
| COc1ccc2c(c1)c(CCN)c(C)n2Cc1ccccc1 | inconclusive: 31.6 µM [inhibitor, partial curve] |
| C=CC[n+]1c(-c2ccc(C)cc2)csc1Nc1c(C)n(C)n(-c2ccccc2)c1=O | inconclusive: 35.5 µM [inhibitor, partial curve] |
| C=CCN1C(=O)NC(=O)/C(=C/C=C/c2ccccc2)C1=O | inconclusive: 56.2 µM [inhibitor, partial curve] |
| O=C(O)C1C(C(=O)O)C2(Cl)C(Cl)=C(Cl)C1(Cl)C2(Cl)Cl (stereo not drawn) | inconclusive: 89.1 µM [inhibitor, single point] |
| CC/C(=C(\c1ccc(O)cc1)c1ccc(OCCN(C)C)cc1)c1ccccc1 | active: 44.7 µM |
| Cc1cc2c(cc(C(=O)N3CCC(C(=O)NC4CCCC4)CC3)n2Cc2c(F)cccc2Cl)o1 | inconclusive: 79.4 µM [inhibitor, single point] |
| COc1ccc(Cn2c(O)c(/C=N/NC(=O)c3ccccc3)c(=O)[nH]c2=O)cc1 | active: 50.1 µM |
| CCN1CCN(C(=O)Cc2coc3ccc4ccccc4c23)CC1 | inactive |
| Cc1ccc(-n2c(O)c(C=NCc3ccco3)c(=O)[nH]c2=S)cc1C | inconclusive: 89.1 µM [inhibitor, single point] |
| COc1ccccc1-c1n[nH]c(=S)n1Cc1ccco1 | inconclusive: 79.4 µM [inhibitor, single point] |
| CCOC(=O)c1c(-n2c(C)cc(C=C3C(=O)NC(=S)NC3=O)c2C)sc2c1CCCC2 | inconclusive: 44.7 µM [inhibitor, partial curve] |
| COCCCN1CCN(c2nnc3n2-c2sc(Br)cc2C(c2ccccc2Cl)=NC3)CC1 | inactive |
| CC(=O)N1CCN(c2ccc(OC[C@H]3CO[C@](Cn4ccnc4)(c4ccc(Cl)cc4Cl)O3)cc2)CC1 | active: 17.8 µM and active: 35.5 µM |
| Cc1cc(C)cc(N2C(=O)/C(=C\c3ccc(N4CCN(C)CC4)o3)C(=O)NC2=S)c1 | active: 35.5 µM |

| Structure (SMILES) | Potency |
| --- | --- |
| CN(C)CC/C=C1/c2ccccc2Sc2ccc(Cl)cc21 | inconclusive: 89.1 µM [inhibitor, single point] |
| CCOc1cc(N2CCOCC2)c(OCC)cc1NC(=O)C1=NN(c2cccc(C)c2)C(=O)CC1 | active: 8.91 µM |
| CCOC(=O)N1CCN(C(C)C(=O)c2c[nH]c3ccccc23)CC1 (stereo not drawn) | inactive |
| O=C1NC(=O)N(c2ccc(Cl)cc2)C(=O)/C1=C\c1ccc(Sc2nc3ccccc3[nH]2)o1 | active: 28.2 µM |
| COc1cccc(CCNCc2c(F)cccc2F)c1 | active: 39.8 µM |
| CCN(CC)Cc1c[nH]c2ccccc12 | inconclusive: 89.1 µM [inhibitor, single point] |
| O=C1NC(=O)C(=Cc2ccc(-c3cc(Cl)ccc3[N+](=O)[O-])o2)C(=O)N1 | active: 44.7 µM |
| CN(C)[C@@H]1C(=O)C(C(N)=O)=C(O)[C@@]2(O)C(=O)C3=C(O)c4c(O)ccc(Cl)c4[C@@](C)(O)[C@H]3C[C@@H]12 | active: 17.8 µM |
| c1coc(CNCCc2c[nH]c3ccccc23)c1 | inconclusive: 70.8 µM [inhibitor, single point] |
| O=[N+]([O-])c1ccc(N2CCCCC2)c2ncccc12 | inconclusive: 14.1 µM [inhibitor, partial curve] |
| O=C(COc1ccc2ccc(=O)oc2c1)N1C[C@H]2C[C@@H](C1)c1cccc(=O)n1C2 | inconclusive: 89.1 µM [inhibitor, single point] |
| Cc1ccc(NP(=O)(c2ccccc2)c2nc3ccccc3s2)cc1 (stereo not drawn) | inactive |
| CCOc1ccccc1N1CCN(Cc2cccc(OC)c2OC)CC1 | inconclusive: 89.1 µM [inhibitor, single point] |
| C=CCN1C(=O)/C(=C/c2cc(C)n(-c3cccnc3)c2C)C(=O)NC1=S | inactive |
| Clc1ccc(CSC(Cn2ccnc2)c2ccc(Cl)cc2Cl)cc1 (stereo not drawn) | inconclusive: 22.4 µM [inhibitor, full curve] |
| O=C(N/N=C/c1c(O)n(Cc2ccccc2)c(=O)[nH]c1=O)c1ccccc1O | inconclusive: 79.4 µM [inhibitor, single point] |
| O=C(COC(=O)CCc1c[nH]c2ccccc12)Nc1ccc([N+](=O)[O-])cc1 | inconclusive: 39.8 µM [inhibitor, partial curve] |
| Cc1c(C(=O)O)cccc1-n1c(C)cc(/C=C2\C(=O)NC(=O)N(c3ccc4c(c3)OCO4)C2=O)c1C | active: 56.2 µM |
| O=C(N/N=C/c1c(O)n(Cc2ccco2)c(=O)[nH]c1=O)c1ccccc1O | inconclusive: 79.4 µM [inhibitor, partial curve] |
| CC1CN=C(NC(C)c2ccccc2)S1 (stereo not drawn) | inconclusive: 89.1 µM [inhibitor, single point] |
| CN1CCN(c2ccc([N+](=O)[O-])c3no[n+]([O-])c23)CC1 | inconclusive: 56.2 µM [inhibitor, partial curve] |
| COc1ccc(OCC(=O)N2CCN(Cc3cccc(OC)c3OC)CC2)cc1 | active: 50.1 µM |
| O=[N+]([O-])c1cc(F)c(N2CCCCCC2)cc1N1CCNCC1 | inconclusive: 70.8 µM [inhibitor, single point] |

| Structure (SMILES) | Potency |
| --- | --- |
| O=P(O)(O)C#Cc1ccccc1 | inconclusive: 89.1 µM [inhibitor, single point] |
| CCC(C)/C=C(C)/C=C/C1=CC2=C(Cl)C(=O)C(C)(OC(C)=O)C(=O)C2=CO1 (stereo not drawn) | active: 25.1 µM |
| c1cnc(N2CCNCC2)nc1 | inconclusive: 63.1 µM [inhibitor, partial curve, poor fit] |
| CC(C)(C)NC(=O)Cn1cc(C(=O)c2ccccc2F)c2ccccc21 | inactive |
| OC(CNC1CCCCCCC1)c1ccccc1 (stereo not drawn) | inconclusive: 79.4 µM [inhibitor, partial curve] |
| Cc1ccc(-c2nc3ccccc3c(=O)n2-c2nccs2)cc1 | inactive |
| Cc1cc(C)nc(N/N=C/C2=C(O)CC(c3ccccc3)CC2=O)n1 (stereo not drawn) | active: 22.4 µM |
| Cc1ccc2c(c1)=C/C(=C\c1c(O)[nH]c(=S)[nH]c1=O)C(=O)N=2 | inconclusive: 79.4 µM [inhibitor, single point] |
| C[N+]1(C)C2CCC1CC(OC(=O)c1ccccc1)C2 (stereo not drawn) | inconclusive: 100 µM [inhibitor, single point] |
| COC(=O)C1=C(c2ccc(-c3ccccc3)c(F)c2)C[C@@H]2CC[C@H]1N2C(=O)NCCc1ccccc1 | inconclusive: 35.5 µM [inhibitor, single point] |
| COc1ccc(CCNCc2c(OC)ccc3ccccc23)cc1 | active: 35.5 µM |
| CN(C)c1ccc(/C=C2/C(=O)NC(=O)N(CCc3ccc(F)cc3)C2=O)cc1 | inconclusive: 79.4 µM [inhibitor, single point] |
| O=C1NC(=O)N(Cc2ccccc2)C(=O)/C1=C/c1cnn(-c2ccccc2)c1 | inconclusive: 100 µM [inhibitor, single point] |
| CSc1ncc(/C=C2/C(=O)NC(=O)N(c3ccc(C)cc3)C2=O)cn1 | inactive |
| CNCCc1nc(N)n[nH]1 | inconclusive: 89.1 µM [inhibitor, single point] |
| Cc1sc2c(c1C)C(c1cccs1)=NCC(=O)N2CC(=O)NCc1cccs1 | inactive |
| Cc1ccc(S(=O)(=O)CC(=O)c2cc(C)c(OC(=O)N(C)C)c(C)c2)cc1 | inactive |
| O=C(N=Nc1c(O)[nH]c(=O)[nH]c1=O)C1COc2cc3ccccc3cc2O1 (stereo not drawn) | inconclusive: 89.1 µM [inhibitor, single point] |
| COc1cc2c(cc1OC)C(C1c3cc4c(cc3CCN1C)OCO4)OC2=O (stereo not drawn) | inconclusive: 89.1 µM [inhibitor, single point] |
| O=C(N/N=C/c1c(O)n(Cc2ccc(F)cc2)c(=O)[nH]c1=O)c1ccccc1O | inconclusive: 89.1 µM [inhibitor, single point] |
| CN1CCN(c2ccc(/C=C3\C(=O)NC(=S)N(c4cccc(Br)c4)C3=O)o2)CC1 | active: 39.8 µM |
| N[C@@H](Cc1c[nH]c2ccccc12)c1nnc(SCc2ccccc2)o1 | inconclusive: 50.1 µM [inhibitor, partial curve] |
